Measurements reported in paper PMC5762728 (Scientific Reports, 2018).

Molecular target: T1, N-domain of bovine ACE (N-ACE) (Bos taurus, UniProt P12820)
T1 sequence (P12820 40-624 limits assumed): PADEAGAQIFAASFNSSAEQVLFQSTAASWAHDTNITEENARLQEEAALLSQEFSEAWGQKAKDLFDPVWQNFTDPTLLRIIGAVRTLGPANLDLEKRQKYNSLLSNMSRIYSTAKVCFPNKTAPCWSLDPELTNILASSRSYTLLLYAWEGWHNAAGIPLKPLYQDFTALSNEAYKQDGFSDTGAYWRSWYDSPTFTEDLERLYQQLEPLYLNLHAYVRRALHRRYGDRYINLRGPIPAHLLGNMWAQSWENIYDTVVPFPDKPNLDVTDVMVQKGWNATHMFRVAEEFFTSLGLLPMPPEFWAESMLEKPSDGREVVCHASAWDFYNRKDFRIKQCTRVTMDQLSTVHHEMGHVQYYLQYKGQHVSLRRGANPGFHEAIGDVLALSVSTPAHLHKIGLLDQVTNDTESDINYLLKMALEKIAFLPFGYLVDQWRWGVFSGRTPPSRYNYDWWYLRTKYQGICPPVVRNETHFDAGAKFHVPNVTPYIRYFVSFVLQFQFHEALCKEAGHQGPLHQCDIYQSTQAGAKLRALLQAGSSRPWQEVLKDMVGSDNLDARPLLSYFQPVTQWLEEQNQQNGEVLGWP
Test: Hydrolysis of Aβ metal-binding-domain peptides by N-ACE, products identified/quantified by MALDI-TOF MS
Conditions: 40 μM peptide + 0.02 μM N-ACE, 10–40 min (ratAβ peptide: 20 μM + 0.2 μM N-ACE, 10-60 min), 50 mM NaCl, 1 μM ZnCl2, 50 mM sodium bicarbonate pH 7.8 or 25 mM barbital pH 7.4, 37 °C, ND = not detected

## Ac-DAEFGHDSGFEVRHQK-NH2 [[CH3CO]-Asp-Ala-Glu-Phe-Gly^5-His-Asp- Ser-Gly- Phe^10-Glu-Val-Arg-His-Gln^15-Lys-[NH2]]
  Products observed (backbone positions), N-ACE: 1–13
